{
  "source": "patent US10765696B2",
  "about": "“Compositions of and methods of treatment with zwitterionic polysaccharide” (City of Hope, priority 2015, dated 2020)",
  "test_system": "T cells",
  "test": "Flow cytometry of T cells (phenotype, tetramer, intracellular cytokines) from treated HSV infected mice",
  "details": "six oral doses of PSA, ACV from day 4, spleen day 6 post-infection",
  "data": [
    {"substance": "Bacteroides fragilis (B. fragilis) capsular polysaccharide A (PSA)", "values": [
      {"measurement": "spleen CD8 T cells virus specific (H-2b HSV gB498 tetramer staining)", "result": "about 12%"}
    ]}
  ]
}
